# About 540 (0.36%) of roughly 150,000 compounds showed an effect of 50% or more. The list shows a part of the results.
# Tested on: Plasmodium falciparum
# Assay: Primary screen in NF54 nanoGlo assay, in single point, at 2uM, 72h; a lower Z score goes with more inhibition
# Type: functional, Erythrocyte
# Details: timepoint 72 hour
SMILES,% Inhibition,Z score
O=C1NC2(CCCC2)C(=O)N[C@@H]1Cc1ccc(O)cc1,2%,-0.29
O=C(C[C@@]1(O)C(=O)N(Cc2ccc3c(c2)OCO3)c2ccccc21)c1ccc(Cl)cc1Cl,-12%,1.63
O=C(Nc1cccc(-c2nnco2)c1)Nc1cccc2c1CCCC2,-20%,3.59
Cc1ccc(C2CC(C)CCN2C(=O)c2ccnc3c2nnn3C)o1 (stereo not drawn),-15%,1.98
Cc1cc(-c2cnn(C)c2)n(C[C@H](C)O)n1,-14%,1.43
Cc1c(NC(=O)[C@H]2COCCN2)cnn1CCC(C)C,-8%,0.98
O=C(NCC1(O)CCCCC1)[C@H]1CCC(=O)N(Cc2ccccn2)C1,-12%,1.61
Cc1cccnc1NC(=O)C1CCN(S(=O)(=O)c2ccc3c(c2)C[C@H](C)N3C(=O)C2CCC2)CC1,-4%,0.69
CCOC(=O)[C@@]1(C(C)C)CCN(Cc2ncc(C)o2)C1,-16%,2.16
CC(C)CCC(=O)NCC(=O)Nc1cc(C(C)C)n[nH]1,0%,0.06
O=C1[C@@H]2C[C@H](F)CN2C(=O)N1c1ccc2occc2c1,-6%,0.56
COc1cccc(C(CC(=O)N2CCCC2)c2cnc3n2C(C)CCC3)c1 (stereo not drawn),-1%,0.11
Cn1nnc(CNC(=O)N2Cc3cccnc3N3CCC[C@@H]3C2)n1,-6%,1.24
CCn1cc(C(=O)Nc2ccc(OCCN3CC[C@H](C)C3)cc2)cn1,5%,-0.92
COc1ccc(Cl)cc1-n1nc(CC(N)=O)nc1[C@H](C)n1ccnc1C,1%,-0.14
COC(=O)[C@H](C(=O)NCc1ccc(Cl)cc1)C1CCCCCC1,-6%,0.86
COc1cccc(C(C)NC(C)C(=O)N2CCC[C@@H]2CO)c1 (stereo partly drawn),-7%,0.96
COc1ccc(Cl)cc1C(C)(C)NC(=O)c1ccns1,6%,-0.91
COc1ccc(OC)c(C2=NS(=O)(=O)N(C)C(C(=O)N3CCN(c4ccccc4)CC3)=C2)c1,-10%,1.88
COCCN(Cc1cc(C)cc(C)c1)S(=O)(=O)N(C)C,1%,-0.11
CC(C)c1nn(C)cc1-c1cn(C)nc1C#N,-9%,1.11
FC(F)(F)C1=CCN(c2cc(N3CCCC3)ncn2)CC1,-19%,2.22
CC(C)c1ocnc1C(=O)N1CCC2(CCCCC2)C1,4%,-0.72
CC(=O)N(C)c1cccc(NS(=O)(=O)C[C@H](C)c2ccccc2)c1,12%,-1.79
CCCCNC(=O)CN1C=C(c2nc(C)no2)C(C)=NS1(=O)=O,-9%,1.1
CN(CC(=O)Nc1ccn(C)n1)Cc1cscn1,-8%,0.93
C[C@@H](CN1CCOCC1)NC(=O)c1cc(C2CC2)[nH]n1,-6%,1.21

SMILES,% Inhibition,Z score
CCN(CCC(F)(F)F)C(=O)c1ccc(N(C)C)cc1F,-12%,1.6
CCC[C@]1(C(=O)O)CCCN(C(=O)CCc2ccncc2)C1,4%,-0.67
O=C(Cn1ccc(-c2ccccc2)nc1=O)N1CCCCCC1,-16%,1.97
NC(=O)CCn1ccc(Nc2ncc(Br)cn2)n1,-8%,0.81
O=C1OC2CC1N(C(=O)c1cc(Cl)ccc1Cl)C2 (stereo not drawn),-9%,1.34
O=C1NC(c2ccc(-c3ccccc3Cl)o2)C(C(=O)c2ccccc2)C(O)(C(F)(F)F)N1 (stereo not drawn),0%,-0.08
CN(CC(F)(F)F)C(=O)CN1CC[S@+]([O-])C(C)(C)C1,-3%,0.31
O=C(Nc1cn[nH]c1)N(CC1(O)CCCC1)CC1(O)CCCC1,-9%,1.88
Cc1c(C(=O)NCC(C)(C)N2CCOCC2)cnn1-c1ncc2c(n1)-c1ccccc1CCC2,-5%,1
O=C(NC[C@H]1CCCO1)c1coc(CN(Cc2ccc(F)cc2)Cc2ccccc2Cl)n1,-13%,1.61
CCCc1[nH]ccc1C(=O)NC[C@H]1CCCn2ccnc21,-7%,1.29
O=c1nc(CN(c2ccccc2)C2Cc3ccccc3C2)[nH][nH]1,-11%,1.48
O=C(CC[C@H]1CC[C@@H](C(F)(F)F)O1)N[C@H]1CCC[C@H]1C(=O)O,-4%,0.64
Cc1cc(C(=O)N2CCc3nocc3C2)c(=O)n(C)c1C,-4%,0.71
N#Cc1cccc(CN2Cc3nc[nH]c3C[C@H]2c2nc(-c3ccc4ccccc4c3)no2)c1,-6%,0.87
O=C(Nc1ccccc1N1CCCC1)c1cccc[n+]1[O-],-14%,1.47
CCOC(=O)[C@H]1CCCN(CC(=O)Nc2ccc3c(c2)OCO3)C1,3%,-0.42
COc1cccc(C(=O)NC[C@H](C)N2CCc3ccccc32)c1OC(F)F,-4%,0.66
CCN1C(=O)N(c2nnc(C)s2)C(=O)[C@@H]1Cc1ccccc1,-7%,0.98
COc1ccc2c(-c3ccccc3)c(C(=O)Nc3ccc(F)cc3)oc2c1,5%,-0.91
Oc1cc(CN2CCCCC2)nc(C2CC2)n1,-18%,3.38
COC(=O)c1ncn(C[C@@H](O)Cc2ccccc2C(F)(F)F)n1,-12%,1.05
CC(C)CN1Cc2cc(NS(=O)(=O)c3ccccc3)ccc2O[C@@H](C)C1=O,0%,-0.04
CNc1snc(C)c1C(=O)N1CC[C@](C)(O)C1,-29%,3.44
Cc1ccc(NC(=O)NC[C@H](c2cccnc2)c2c[nH]c3ccccc23)c(C)c1,-9%,1.73
O=C(Nc1ccccc1)c1nnc(N2CCC(Cc3ccccc3)CC2)c2ccccc12,-6%,0.54
O[C@H]1CCN(c2ccnc(N3CCCn4cncc4C3)n2)C1,2%,-0.27

# Reference: ChEMBL document CHEMBL4888484, “Replenishing the malaria drug discovery pipeline: Screening and hit evaluation of the MMV Hit Generation Library 1 (HGL1) against asexual blood stage Plasmodium falciparum ,using a nano luciferase reporter read-out” (2022)
